# Measured values taken from PubChem BioAssay AID686978 (National Center for Advancing Translational Sciences (NCATS), 2013).
# The campaign covered roughly 420,000 compounds. About 64,000 (15%) were called active. The shares of active, inactive and inconclusive entries below differ from those in the screen. The call rests on the fitted dose curve; in most records, active means well fitted inhibition curve with a large enough effect; inconclusive means small, poorly fitted or top-dose-only effect; inactive means flat fitted curve, though single readings scatter. Potencies of inconclusive entries are left out as doubtful fits.
# Experiment: qHTS for Inhibitors of human tyrosyl-DNA phosphodiesterase 1 (TDP1): qHTS in cells in absence of CPT; further: nearly all actives have a fitted effect of over 55% in size
# Conditions: DT40 Tdp1-/- hTDP1 cells, no CPT, ATP luminescence, 48 h; activity change, negative = growth inhibition: at 46.2 µM (top of the series) unless noted
# Procedure, shortened: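 Stably hTDP1-transfected Tdp1-null chicken DT40 cells were treated with library compounds minus camptothecin and grown for at least 48 hr at 37 °C, after which cellular ATP was quantified by luminescence.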
# On the % scale 0 is the no-effect control and ±100 the full control effect; potency means the concentration at half of the fitted maximal effect; tags describe the fitted curve by direction and shape.
Structure (SMILES),Potency,"activity change, negative = growth inhibition"
CN(c1ccccc1)S(=O)(=O)c1ccc(NC(=O)c2cccs2)cc1,"inconclusive [inhibitor, single point]",
Cc1cc(NCc2ccccc2)c2ccccc2n1,active: 20.6 µM,
CC1CCCCC1NC(=O)COC(=O)c1ccc2c(c1Cl)C(=O)c1ccccc1C2=O (stereo not drawn),,inactive: 4.31%
COCCn1c(SCC(=O)Nc2cccc(F)c2)nc2c(c1=O)SCC2,,inactive: 5.3%
c1coc(-c2nc(N=C3N=c4ccccc4=N3)[nH]c2-c2ccco2)c1,"inconclusive [inhibitor, single point]",
COc1ccc(/C=N/Nc2ncnc3sc(C)c(C)c23)cc1,active: 4.11 µM,
O=C(Nc1ccc2oc(=O)ccc2c1)c1ccc(-c2cccc([N+](=O)[O-])c2)o1,active: 7.31 µM,
CCOc1ccc(-c2nonc2NC(=O)c2oc3ccc(F)cc3c2C)cc1,active: 0.82 µM,
Cc1ccc(/C=C(\C#N)C(=O)Nc2c(C)cccc2C)s1,active: 20.6 µM,
COc1ccccc1NS(=O)(=O)c1ccc(C(=O)NCc2ccncc2)cc1,,inactive: -26.1%
Nc1nnc(-c2ccc(Cl)cc2)o1,,inactive: 16.9%
Cc1nn2c(=O)cc(CN(C)c3ccccc3)nc2s1,,inactive: 11.5%
C/C(=N\NC(N)=S)c1cc(-c2ccccc2)c(-c2ccccc2)s1,"inconclusive [inhibitor, single point]",
CCC1CCc2sc(C(=O)NCC3CCCO3)cc2C1 (stereo not drawn),active: 18.4 µM,
COc1ccc(/C=C/C(=O)c2ccc(OC)cc2O)cc1,,inconclusive: -32.1% [inhibitor]
CC1(C)NC(=O)N(CCOCCOc2ccccc2-c2ccccc2)C1=O,"inconclusive [inhibitor, single point]",
CSc1cccc(NC(=S)N2CCCN(Cc3ccc(F)cc3)C2)c1,"inconclusive [inhibitor, single point]",
CC(C)(C)c1ccc(Cn2c(Cc3ccccc3)nc3ccccc32)cc1,active: 6.51 µM,
O=C(c1ccoc1)N1CCC2(CC1)Oc1ccc(Cl)cc1C(=O)C21CC(c2ccc(Cl)cc2)=NO1 (stereo not drawn),"inconclusive [inhibitor, single point]",
Cc1ccc(O)c(-c2cc(C(=O)NCc3ccccc3)[nH]n2)c1,"inconclusive [inhibitor, single point]",
O=C(NC(=O)c1ccc(Cl)c(Cl)c1)OC1CCS(=O)(=O)C1 (stereo not drawn),,inactive: -4.5%
COCCN(C(=O)COC(=O)CCCOc1ccccc1)c1c(N)n(Cc2ccccc2)c(=O)[nH]c1=O,"inconclusive [inhibitor, full curve, poor fit]",
Cn1c(-c2ccc[nH]c2=O)nc2cc(Cl)ccc21,"inconclusive [inhibitor, partial curve, poor fit]",
O=C(OCCCOc1ccc(F)cc1)c1ccc(O)cc1O,,inactive: -27.1%

Structure (SMILES),Potency,"activity change, negative = growth inhibition"
COc1ccccc1/C=C/c1nc(S(=O)(=O)c2ccccc2)c(N(C)C)o1,"inconclusive [inhibitor, single point]",
COc1cc(Cl)c(C)cc1NC(=O)CN1CCN(C(=O)C2CC2)CC1,"inconclusive [inhibitor, single point]",
COCCn1c(=S)[nH]c2cc(C(=O)N3CCN(c4cccc(Cl)c4)CC3)ccc2c1=O,active: 4.11 µM,
O=C(Cc1ccc(NC(=O)C2CCN(C(=O)C3CC3)CC2)cc1)Nc1cccc(C(=O)N2CCCCC2)c1,,inactive: -10.2%
COc1ccccc1N1CCN(C(=O)c2ccc3c(=O)n4c(nc3c2)CCCCC4)CC1,"inconclusive [inhibitor, single point]",
CN(C(=O)CC1C(=O)NCCN1Cc1cccc(C(F)(F)F)c1)C1CCOCC1 (stereo not drawn),,inactive: 10.7%
O=C(COc1ccccc1Cl)Nc1cc(-c2ccccc2F)nn1-c1ccccc1,active: 9.2 µM,
Cn1c(SCc2ccccc2)nnc1-c1ccco1,"inconclusive [inhibitor, single point]",
Cc1cc(C)cc(NC(=O)CN(c2cc(C(F)(F)F)ccc2Cl)S(=O)(=O)c2ccccc2)c1,"inconclusive [inhibitor, partial curve]",
O=C(Cn1cc([N+](=O)[O-])ccc1=O)NCC1COc2ccccc2O1 (stereo not drawn),"inconclusive [inhibitor, partial curve]",
COc1ccc(NC(=O)COC(=O)C2CCC2)cc1Cl,,inactive: 15.3%
O=C(c1c(F)cccc1F)N(Cc1ccccn1)C1CC1,,inconclusive: -30.5% [inhibitor]
O=C(c1cccc(F)c1)N1CCCC(C(=O)N2CCCCCC2)C1 (stereo not drawn),,inactive: -4.1%
COc1ccc(C2CC3(CC(C)(C)NC(=S)N3)Oc3cc(O)cc(C)c32)cc1OC (stereo not drawn),"inconclusive [inhibitor, partial curve, poor fit]",
COCCCNC(=O)c1ccc(Cn2c(=O)c3ccccc3n(CC(=O)NCc3ccco3)c2=O)cc1,"inconclusive [inhibitor, single point]",
Cn1c(-c2ccccc2)nc2cnccc21,"inconclusive [inhibitor, single point]",
CCOC(=O)C1(Cc2ccc(Cl)cc2)CCN(C2CCC2)CC1,"inconclusive [inhibitor, single point]",
CCC(c1nnnn1Cc1ccccc1)N1CCN(C(=O)c2ccco2)CC1 (stereo not drawn),,inactive: -27.3%
O=C(CCS(=O)(=O)c1nc(-c2cccs2)cc(C(F)(F)F)n1)Nc1ccc(OC(F)(F)F)cc1,,inactive: -23.6%
Cc1nc(S/C(=C/c2ccc(-c3ccc(Cl)cc3)o2)C(=O)O)n[nH]1,"inconclusive [inhibitor, single point]",
Cn1c(=O)c(-c2ccc(Cl)cc2)nc2cnc(Oc3cccc(Cl)c3)nc21,,inactive: -11.2%
O=C(c1cc([N+](=O)[O-])ccc1N1CCCCC1)N1CCc2ccccc21,active: 4.61 µM,
C/C(=N\NC(=O)c1ccc(O)cc1)c1ccc(NC(=O)Cc2ccccc2)cc1,"inconclusive [inhibitor, single point]",
O=C1NN(c2ccc(F)c(Cl)c2)C(=O)/C1=C\c1cccc(OC(=O)c2cccs2)c1,,inactive: -0.283%
